Laboratory results taken from the BET-seq Pho4 binding data (Le et al. 2018).
The other results are listed elsewhere or left out. These are noisy estimates, calculated here from bound and input reads.

biological target: T1, Pho4 (S. cerevisiae) (UniProt P07270); assay: relative binding free energy (BET-seq); higher = weaker binding; conditions: reference: library average
T1 sequence: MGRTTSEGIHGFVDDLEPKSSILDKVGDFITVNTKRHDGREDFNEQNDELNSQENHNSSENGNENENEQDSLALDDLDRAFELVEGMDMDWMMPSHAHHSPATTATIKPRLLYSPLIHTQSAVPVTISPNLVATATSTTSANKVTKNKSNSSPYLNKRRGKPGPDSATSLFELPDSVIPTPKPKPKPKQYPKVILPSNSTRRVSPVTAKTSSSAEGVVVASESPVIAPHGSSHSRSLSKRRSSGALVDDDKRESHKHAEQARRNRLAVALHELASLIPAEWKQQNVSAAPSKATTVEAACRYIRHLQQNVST

Row | Sequence | relative binding free energy
1 | GCGGTCACGTGTCGTT | 0.16 kcal/mol
2 | TAGGTCACGTGGCGGT | 0.08 kcal/mol
3 | TGTACCACGTGGGGGT | -0.31 kcal/mol
4 | TAGATCACGTGGTATT | 0.2 kcal/mol
5 | TATTTCACGTGTTTGT | 0.31 kcal/mol
6 | GGTTACACGTGATTCG | 0.25 kcal/mol
7 | TATGTCACGTGTGATA | 0.17 kcal/mol
8 | TCGATCACGTGCGTGG | 0.16 kcal/mol
9 | TGTGACACGTGACGGG | 0.15 kcal/mol
10 | TGATTCACGTGGATGA | 0.24 kcal/mol
11 | TGGTGCACGTGGTATC | -0.18 kcal/mol
12 | GTGGTCACGTGGTAGG | 0.14 kcal/mol
13 | AATAGCACGTGTGGTT | -0.02 kcal/mol
14 | AGTGGCACGTGCGAGG | -0.12 kcal/mol
15 | GGTCACACGTGTTGTG | 0.15 kcal/mol
16 | AGTGTCACGTGATAAA | 0.22 kcal/mol
17 | GTAAGCACGTGGTTGT | -0.03 kcal/mol
18 | CTCGTCACGTGGTGGG | 0.02 kcal/mol
19 | AAAGCCACGTGGGTGT | -0.14 kcal/mol
20 | TAATGCACGTGGGGTA | -0.26 kcal/mol
21 | CTCATCACGTGGGGTG | -0.12 kcal/mol
22 | GCTTGCACGTGGTAGG | -0.06 kcal/mol
23 | AATGGCACGTGAATAG | 0.25 kcal/mol
24 | GGACGCACGTGTTAAT | 0.12 kcal/mol
25 | GGTGGCACGTGATGTT | 0.09 kcal/mol

Row | Sequence | relative binding free energy
26 | TTGCTCACGTGGGTCT | 0.03 kcal/mol
27 | AGCTTCACGTGTGGTG | 0.23 kcal/mol
28 | TTGATCACGTGGCTAG | 0.05 kcal/mol
29 | ATATGCACGTGTGAGA | 0.12 kcal/mol
30 | ATGGCCACGTGTGGGA | -0.03 kcal/mol
31 | CTTGTCACGTGATGTG | 0.23 kcal/mol
32 | TGTTTCACGTGGCGAA | 0.21 kcal/mol
33 | CTTTGCACGTGGGCGT | -0.16 kcal/mol
34 | TGGGTCACGTGCAGGT | 0.16 kcal/mol
35 | GGTATCACGTGAGTTC | 0.29 kcal/mol
36 | CTGATCACGTGGCGTA | 0.18 kcal/mol
37 | TATATCACGTGCAATG | 0.18 kcal/mol
38 | ACTGACACGTGTTGGT | 0.07 kcal/mol
39 | GGGTCCACGTGCTGGG | 0 kcal/mol
40 | TATGTCACGTGCGTGC | -0.12 kcal/mol
41 | GGGGCCACGTGGTTGT | -0.08 kcal/mol
42 | TATAGCACGTGCCGGG | -0.2 kcal/mol
43 | TAAGTCACGTGTAGGG | 0.08 kcal/mol
44 | GTTGGCACGTGATACG | -0.06 kcal/mol
45 | GGGTTCACGTGCGGCT | 0.36 kcal/mol
46 | TCTGTCACGTGGGTAG | -0.09 kcal/mol
47 | GTTGGCACGTGCGCGG | -0.14 kcal/mol
48 | GTTATCACGTGTCGGG | 0.12 kcal/mol
49 | GAGTACACGTGTGTGG | 0.12 kcal/mol
50 | CGGGGCACGTGGGAAT | -0.14 kcal/mol

Row | Sequence | relative binding free energy
51 | TTGGTCACGTGACCGT | 0.15 kcal/mol
52 | TGTCACACGTGTGAGA | 0.23 kcal/mol
53 | GTTGTCACGTGTCGGC | 0.11 kcal/mol
54 | TGTAACACGTGCCGGT | -0.04 kcal/mol
55 | ATAGTCACGTGTGGAC | 0.21 kcal/mol
56 | GGTAGCACGTGGTCGT | -0.19 kcal/mol
57 | TTTGCCACGTGGGGAA | -0.16 kcal/mol
58 | TGGTACACGTGGACGT | 0.15 kcal/mol
59 | AGGGGCACGTGCCTGT | -0.25 kcal/mol
60 | GTTTGCACGTGATTCT | 0.15 kcal/mol
61 | GGGCTCACGTGTGTCG | 0.22 kcal/mol
62 | TTTTTCACGTGTTGTG | 0.27 kcal/mol
63 | CGTTGCACGTGTGCGT | -0.02 kcal/mol
64 | TTTGTCACGTGATAGT | 0.25 kcal/mol
65 | TGGGTCACGTGAATGG | 0.45 kcal/mol
66 | ATGTGCACGTGGACTT | -0.11 kcal/mol
67 | CATCGCACGTGTGGGG | 0.05 kcal/mol
68 | GCTGCCACGTGTGGTA | 0.13 kcal/mol
69 | TAGGGCACGTGTGTAA | -0.15 kcal/mol
70 | GGAGGCACGTGAATAG | 0.09 kcal/mol
71 | ATATGCACGTGAGGCT | 0.12 kcal/mol
72 | GAGGTCACGTGTAAAG | 0.35 kcal/mol
73 | TGCGTCACGTGAGTGA | 0.13 kcal/mol
74 | GCGGTCACGTGTTGTT | 0.13 kcal/mol
75 | CTGGTCACGTGAGGGA | 0.2 kcal/mol

Row | Sequence | relative binding free energy
76 | GAGTGCACGTGATATG | 0.21 kcal/mol
77 | TGGTGCACGTGAGGAG | 0.23 kcal/mol
78 | CTTTACACGTGGATGA | 0.13 kcal/mol
79 | TAGAGCACGTGTGGTA | -0.05 kcal/mol
80 | GGTCGCACGTGGTGTC | -0.06 kcal/mol
81 | TTCTGCACGTGGCAGG | 0.09 kcal/mol
82 | TGGGTCACGTGACGTG | 0.21 kcal/mol
83 | ATGGACACGTGAGTTT | 0.36 kcal/mol
84 | AAGGGCACGTGGTAAA | -0.18 kcal/mol
85 | GGGGCCACGTGGTTAA | -0.1 kcal/mol
86 | GTTAACACGTGGGTGC | -0.1 kcal/mol
87 | TGACGCACGTGGGAAG | -0.1 kcal/mol
88 | GACGTCACGTGTGAGT | 0.3 kcal/mol
89 | AGGCGCACGTGGGTGG | -0.26 kcal/mol
90 | GGAGTCACGTGGGGTT | 0 kcal/mol
91 | TTTTGCACGTGGGCGG | -0.13 kcal/mol
92 | CGAGGCACGTGGCGTG | -0.25 kcal/mol
93 | GCAAGCACGTGCGTGG | -0.19 kcal/mol
94 | AGTTTCACGTGACTTA | 0.3 kcal/mol
95 | GTAGCCACGTGATGTT | 0.11 kcal/mol
96 | CACGGCACGTGAGGGT | 0.24 kcal/mol
97 | TTTACCACGTGGGGTT | -0.11 kcal/mol
98 | GGATGCACGTGAGAGT | 0.33 kcal/mol
99 | GGGTGCACGTGTAAGT | 0.08 kcal/mol
100 | GTTGTCACGTGCTGTC | 0.13 kcal/mol

Row | Sequence | relative binding free energy
101 | TGATTCACGTGGCTAT | 0.31 kcal/mol
102 | GCGGTCACGTGAAGGG | 0.34 kcal/mol
103 | AGCAGCACGTGGGGTT | -0.27 kcal/mol
104 | TTAGGCACGTGTTGCG | -0.23 kcal/mol
105 | AGAGGCACGTGGGTAT | -0.28 kcal/mol
106 | AGAGGCACGTGGATGG | -0.18 kcal/mol
107 | TAGGGCACGTGAGCTG | 0.06 kcal/mol
108 | GGTTACACGTGGCGAG | 0.15 kcal/mol
109 | ATGGGCACGTGTTTGT | -0.17 kcal/mol
110 | CGGTGCACGTGGTATA | -0.24 kcal/mol
111 | TTTCTCACGTGATGGG | 0.33 kcal/mol
112 | GTGGTCACGTGTTAGT | 0.1 kcal/mol
113 | TAGCGCACGTGGGTCG | -0.27 kcal/mol
114 | GTGTCCACGTGTAGGT | 0.15 kcal/mol
115 | AGAGCCACGTGAGGGG | 0.14 kcal/mol
116 | TAGAGCACGTGAATTG | 0.2 kcal/mol
117 | GTTTGCACGTGACCGT | 0.21 kcal/mol
118 | TGAGTCACGTGGTAGT | -0.07 kcal/mol
119 | GCTGACACGTGTTTTT | 0.03 kcal/mol
120 | TTGAACACGTGTTGTT | 0.03 kcal/mol
121 | GTGGGCACGTGACGTT | 0.09 kcal/mol
122 | AAGTGCACGTGGACGT | -0.05 kcal/mol
123 | ACTTACACGTGGGGGT | 0.07 kcal/mol
124 | CAGTTCACGTGGAGGA | 0.28 kcal/mol
125 | TATCACACGTGCGGTG | 0.14 kcal/mol

Row | Sequence | relative binding free energy
126 | GTTTACACGTGGTCTA | 0.08 kcal/mol
127 | GTGCACACGTGCGTGT | -0.06 kcal/mol
128 | TAGGGCACGTGGTGCG | -0.21 kcal/mol
129 | GGATGCACGTGGTGTA | -0.15 kcal/mol
130 | TTGGTCACGTGGCTTG | 0.07 kcal/mol
131 | TGGTGCACGTGTACTA | -0.11 kcal/mol
132 | ATAAACACGTGTGGAT | 0 kcal/mol
133 | GGGAGCACGTGGGATC | -0.05 kcal/mol
134 | GTCTTCACGTGTGGGG | 0.26 kcal/mol
135 | TGAGGCACGTGCGGGT | -0.19 kcal/mol
136 | TGCTTCACGTGGAGTG | 0.18 kcal/mol
137 | TGTCGCACGTGGAGAT | 0.01 kcal/mol
138 | GGCGGCACGTGCGTGG | -0.15 kcal/mol
139 | AGATGCACGTGGGTAT | -0.19 kcal/mol
140 | ATTTTCACGTGCTTGA | 0.28 kcal/mol
141 | AGAGTCACGTGGAGAG | 0.2 kcal/mol
142 | TGTGGCACGTGTTATT | -0.08 kcal/mol
143 | TTAGGCACGTGTGATA | 0.02 kcal/mol
144 | TCGGTCACGTGATATG | 0.15 kcal/mol
145 | GATGTCACGTGTGAGC | 0.2 kcal/mol
146 | GCTTGCACGTGTGAGG | -0.02 kcal/mol
